Laboratory results published in the supplement of paper PMC11181314.
This is one part of the list. Single values of this set are uncertain.

Test system: U2OS
Experiment: Cell Painting induction (percent of morphological features significantly changed vs DMSO); higher = stronger morphological change
Details: 10 µM; 20 h; run: confirmation repeat
Protocol: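 Cell Painting assay in U2OS cells: compounds at 10 µM for 20 h, six dyes, 579 robust CellProfiler features as Z-scores vs DMSO median (MAD). Induction is the % of significantly changed features (active if ≥5%); relative cell count is in % of DMSO. The primary run holds DCM compounds preselected for induction ≥10%; the confirmation repeat defines active compounds (370 of 549). Replicate agreement is low, attributed to precipitation.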
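Further: stains mark DNA, RNA and nucleoli, ER, actin, Golgi, plasma membrane and mitochondria, read by high-content imaging, with DMSO controls at matching solvent concentration.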

| Compound | Cell Painting induction |
| --- | --- |
| COc1cc(NC(=O)CCCSc2nc(-c3ccco3)cc(C(F)(F)F)n2)cc(OC)c1OC | active: 7.9% |
| CCOc1cccc2cc(C(=O)NCc3ccc(F)cc3)c(=N)oc12 | active: 10.4% |
| Cc1cccc(N2CCN(C(=O)c3cccc(N4CCCC4=O)c3)CC2)c1C | active: 21.6% |
| Cc1ccccc1NC(=O)c1cn2c(nc3ccccc32)c(C#N)c1C | active: 36.1% |
| COCCOC(=O)C1=C(C)Nc2nc3ccccc3n2C1c1cc(F)cc(F)c1 (stereo not given) | active: 7.8% |
| CCCN1CCN(CCCNC(=O)C(CC)n2nc(C)n3c(cc4occc43)c2=O)CC1 (stereo not given) | active: 12.6% |
| Cc1ccc2nc(Nc3nc(C)c(CCC(C)C)c(O)n3)nc(C)c2c1 | inactive: 3.8% |
| Cc1ccc2cc(CN(c3cccc(C)c3C)S(=O)(=O)c3ccccc3)c(O)nc2c1 | active: 22.5% |
| CC1CCc2c(sc(NC(=O)C3c4ccccc4Oc4ccccc43)c2C(N)=O)C1 (stereo not given) | active: 12.6% |
| Cc1ccc(-c2nnc(SCC(=O)N/N=C\c3c(C)nn(-c4ccccc4)c3C)n2-c2ccccc2)cc1 | active: 5.4% |
| O=C(Cn1ncc2c([nH]c3ccccc32)c1=O)NCCCN1CCN(c2ccccc2)CC1 | active: 18.8% |
| COc1ccc(N2CCN(CCCNC(=O)Cn3c(=O)c4cccn4c4ccccc43)CC2)cc1 | active: 8.5% |
| CCOc1ccccc1NC(=O)CSc1nc2ccccc2nc1N1CCOCC1 | active: 13.5% |
| CCCOc1ccc(/C=C/C(=O)Nc2ccc(C(C)=O)cc2)cc1OC | active: 10.4% |
| CCOc1ccc(N(CC(=O)N2CCN(c3ccccc3F)CC2)S(=O)(=O)c2c(C)noc2C)cc1 | active: 8.3% |
| CCN1CCN(C2CCCCC2NS(=O)(=O)c2ccc(Cl)cc2)CC1 (stereo not given) | inactive: 1.6% |
| CCn1cc(C(=O)N2CCc3ccccc32)c(=O)c2cc(S(=O)(=O)N3CC(C)CC(C)C3)ccc21 (stereo not given) | active: 19% |
| CCc1cccc(NC(=S)N(CCN(C)C)C2CCN(C(C)C)CC2)c1 | inactive: 0% |
| CCCn1c(=O)c(C(=O)NCc2ccccc2Cl)c(O)c2ccccc21 | inactive: 0% |
| COc1ccc(Cn2c(=O)[nH]c3cc(C(=O)N4CCN(c5ccccc5OC)CC4)ccc3c2=O)cc1 | active: 32.1% |

Same assay, conditions: 10 µM; 20 h; run: primary screen (compounds selected for induction >=10%)

| Compound | Cell Painting induction [%] |
| --- | --- |
| COc1cc(NC(=O)CCCSc2nc(-c3ccco3)cc(C(F)(F)F)n2)cc(OC)c1OC | 26.6 |
| CCOc1cccc2cc(C(=O)NCc3ccc(F)cc3)c(=N)oc12 | 21.1 |
| Cc1cccc(N2CCN(C(=O)c3cccc(N4CCCC4=O)c3)CC2)c1C | 34.5 |
| Cc1ccccc1NC(=O)c1cn2c(nc3ccccc32)c(C#N)c1C | 42.7 |
| COCCOC(=O)C1=C(C)Nc2nc3ccccc3n2C1c1cc(F)cc(F)c1 (stereo not given) | 41.8 |
| CCCN1CCN(CCCNC(=O)C(CC)n2nc(C)n3c(cc4occc43)c2=O)CC1 (stereo not given) | 17.6 |
| Cc1ccc2nc(Nc3nc(C)c(CCC(C)C)c(O)n3)nc(C)c2c1 | 49.7 |
| Cc1ccc2cc(CN(c3cccc(C)c3C)S(=O)(=O)c3ccccc3)c(O)nc2c1 | 33.9 |
| CC1CCc2c(sc(NC(=O)C3c4ccccc4Oc4ccccc43)c2C(N)=O)C1 (stereo not given) | 21.4 |
| Cc1ccc(-c2nnc(SCC(=O)N/N=C\c3c(C)nn(-c4ccccc4)c3C)n2-c2ccccc2)cc1 | 16.9 |
| O=C(Cn1ncc2c([nH]c3ccccc32)c1=O)NCCCN1CCN(c2ccccc2)CC1 | 29.9 |
| COc1ccc(N2CCN(CCCNC(=O)Cn3c(=O)c4cccn4c4ccccc43)CC2)cc1 | 11.7 |
| CCOc1ccccc1NC(=O)CSc1nc2ccccc2nc1N1CCOCC1 | 11.2 |
| CCCOc1ccc(/C=C/C(=O)Nc2ccc(C(C)=O)cc2)cc1OC | 14.2 |
| CCOc1ccc(N(CC(=O)N2CCN(c3ccccc3F)CC2)S(=O)(=O)c2c(C)noc2C)cc1 | 12.8 |
| CCN1CCN(C2CCCCC2NS(=O)(=O)c2ccc(Cl)cc2)CC1 (stereo not given) | 22.1 |
| CCn1cc(C(=O)N2CCc3ccccc32)c(=O)c2cc(S(=O)(=O)N3CC(C)CC(C)C3)ccc21 (stereo not given) | 19.3 |
| CCc1cccc(NC(=S)N(CCN(C)C)C2CCN(C(C)C)CC2)c1 | 51.5 |
| CCCn1c(=O)c(C(=O)NCc2ccccc2Cl)c(O)c2ccccc21 | 16.9 |
| COc1ccc(Cn2c(=O)[nH]c3cc(C(=O)N4CCN(c5ccccc5OC)CC4)ccc3c2=O)cc1 | 43.4 |
